Measured values published in patent US20260250363A1 (AP BIOSCIENCES, published 2026).

Columns and labels:
[1] = target: T1, SARS-CoV-2 B.1.617.2 Spike Protein (R&D, Cat. #10878-CV) (SARS-CoV-2); test: competition ELISA: blocks biotin-ACE2 binding to coated spike
[2] = target: Recombinant SARS-CoV-2 BA.2 Spike (GCN4-IZ) His Protein, CF (R&D, 11109-CV) (SARS-CoV-2); test: BLI (ForteBio), mAb on AHC sensor, spike in solution
[3] = target: T1, SARS-CoV-2 B.1.617.2 Spike Protein …; test: as above
[4] = target: T2, SARS-CoV-2 B.1.1.529 Spike Protein (Omicron) (SARS-CoV-2); test: as above
[5] = target: T1, SARS-CoV-2 B.1.617.2 Spike Protein …; test: direct ELISA on coated spike
[6] = target: T2, SARS-CoV-2 B.1.1.529 Spike Protein …; test: competition ELISA: blocks biotin-ACE2 binding to coated spike

B1: anti-SARS-CoV-2 antibody clone R4-1a-51 (antibody, V domains shown)
VH: [about 100 residues left out here]GYMDYWGQGTPVTVSS
VL: QSVLTQPPSASGTPGQRVTISCSGSSSNIGSSTVNWYQQLPETAPKLLIYSNHQRPSGVPDRFSGSKSGTSASLALSGLQSEDEAEYYCAAWDDSLNGVVFGGGTKLTVLG
IC50 [1]: 2.99 nM | Kd [2]: 10.3 nM | Kd [3]: 4.13 nM | Kd [4]: 3.49 nM | EC50 [5]: 0.104 nM | IC50 [6]: 4.86 nM
